This is one part of the list.

For 306 variants, enrichment ratio results are on record in a collection of fitness landscapes (doi:10.1126/science.1257360).

The chains are these.
B1: PhoQ; a variant is named by its letters at X, in order, P23837 (parent)
chain: MKKLLRLFFPLSLRVRFLLATAAVVLVLSLAYGMVALIGYSVSFDKTTFRLLRGESNLFYTLAKWENNKLHVELPENIDKQSPTMTLIYDENGQLLWAQRDVPWLMKMIQPDWLKSNGFHEIEADVNDTSLLLSGDHSIQQQLQEVREDDDDAEMTHSVAVNVYPATSRMPKLTIVVVDTIPVELKSSYMVWSWFIYVLSANLLLVIPLLWVAAWWSLRPIEALAKEVRELEEHNRELLNPATTRELTSLVRNLNRLLKSERERYDKYRTTLTDLTHSLKTPLXXLQXXLRSLRSEKMSVSDAEPVMLEQISRISQQIGYYLHRASMRGGTLLSRELHPVAPLLDNLTSALNKVYQRKGVNISLDISPEISFVGEQNDFVEVMGNVLDNACKYCLEFVEISARQTDEHLYIVVEDDGPGIPLSKREVIFDRGQRVDTLRPGQGVGLAVAREITEQYEGKIVAGESMLGGARMEVIFGRQHSAPKDE

In this test the parent is B1. In words: enrichment ratio after two sorts for PhoP signalling (ratio (wild type AVST 3.29)); higher = more functional. To be noted: with PhoP (E. coli).
As for IPQD, the enrichment ratio was ≤ 0.25. To FTET belongs ≤ 0.25; to SCTK, 7.2; to RHVI, ≤ 0.25. On to RYCN, for which the enrichment ratio was ≤ 0.25.

Turning to YYTR, the enrichment ratio was ≤ 0.25. For SIYE the value was 0.315; for RPSE, ≤ 0.25.

With ENII, the enrichment ratio is ≤ 0.25. To YSGD belongs ≤ 0.25. Regarding AYVQ, the enrichment ratio is ≤ 0.25. Turning to AEGA, the enrichment ratio came to 11. For PYFY the value was ≤ 0.25; for HRPT, ≤ 0.25; for GHGF, ≤ 0.25. For RIMW the value was ≤ 0.25; for YSRE, ≤ 0.25; for VACV, ≤ 0.25. For PCEY the value was ≤ 0.25; for RLPD, ≤ 0.25.

Consider KHWD, for which the enrichment ratio is ≤ 0.25. To WSGS belongs ≤ 0.25. To PFCS belongs ≤ 0.25. For WPRQ the value was ≤ 0.25; for TRTE, ≤ 0.25; for SQFG, ≤ 0.25.

On to GDRF, for which the enrichment ratio was ≤ 0.25. For IMPK the value was ≤ 0.25; for TDEI, ≤ 0.25; for FTHS, ≤ 0.25. To EYCC belongs ≤ 0.25; to ILKN, ≤ 0.25; to SQWA, ≤ 0.25. For TQES the value was ≤ 0.25; for NNIP, ≤ 0.25; for LIVE, ≤ 0.25. With DNWF, the enrichment ratio was ≤ 0.25. To NNKT belongs ≤ 0.25. Regarding NPGI, the enrichment ratio was ≤ 0.25. To HAPP belongs ≤ 0.25. To QTMH belongs ≤ 0.25. For VTDY the value was ≤ 0.25; for WKCC, ≤ 0.25; for PYSD, ≤ 0.25.

Take YVMV: the enrichment ratio was ≤ 0.25.

Regarding SRPI, the enrichment ratio was ≤ 0.25. For RQAR the value was ≤ 0.25. For QFPM, the enrichment ratio is ≤ 0.25. For GRLN the value was ≤ 0.25; for TFHV, ≤ 0.25; for PFMY, ≤ 0.25. On to MGKF, for which the enrichment ratio is ≤ 0.25. For FIFS the value was ≤ 0.25; for YPQY, ≤ 0.25; for WQDL, ≤ 0.25. For IWLN the value was ≤ 0.25.

On to RSVQ, for which the enrichment ratio is ≤ 0.25. To SNHS belongs ≤ 0.25; to RFTL, ≤ 0.25. Turning to PATF, the enrichment ratio is ≤ 0.25. For VGHM the value was ≤ 0.25; for TKMD, 0.263.

With CLVI, the enrichment ratio is ≤ 0.25.

In the case of TRRL, the enrichment ratio was ≤ 0.25. To VLHL belongs ≤ 0.25.

With TIEW, the enrichment ratio is ≤ 0.25.

On to YNDQ, for which the enrichment ratio is ≤ 0.25. To PRTA belongs ≤ 0.25; to NKQI, ≤ 0.25.

For PNQD, the enrichment ratio is ≤ 0.25. To IIPM belongs ≤ 0.25. Turning to YWKT, the enrichment ratio was ≤ 0.25. As to MRGS, the enrichment ratio was ≤ 0.25. To VLHM belongs ≤ 0.25. For KHDE, the enrichment ratio is ≤ 0.25. To ELVM belongs ≤ 0.25; to KGWA, ≤ 0.25; to KGCR, ≤ 0.25. Regarding RQIE, the enrichment ratio was ≤ 0.25. For TVGD the value was ≤ 0.25; for DEHQ, ≤ 0.25; for YGVN, 0.446.

On to MKCF, for which the enrichment ratio was ≤ 0.25. To QLLS belongs ≤ 0.25; to RWTS, ≤ 0.25; to VLCA, ≤ 0.25.

Turning to REMP, the enrichment ratio was ≤ 0.25. To ECLQ belongs ≤ 0.25; to QNPD, ≤ 0.25. To LDVW belongs ≤ 0.25; to DWLV, ≤ 0.25; to FSAV, 0.409. To PVWA belongs ≤ 0.25. In the case of KVFI, the enrichment ratio is ≤ 0.25. To VEMS belongs 7.83; to WYAL, ≤ 0.25; to SEAE, 5.82.

As for PHKD, the enrichment ratio was ≤ 0.25. To QMSW belongs ≤ 0.25; to VISA, ≤ 0.25.

For the variant FFFL, the enrichment ratio is ≤ 0.25. With YPPV, the enrichment ratio was ≤ 0.25. FEDN: the enrichment ratio is ≤ 0.25. Regarding HYKG, the enrichment ratio is ≤ 0.25. For RVND the value was ≤ 0.25; for YDVT, ≤ 0.25. For DESP the value was ≤ 0.25. To DLSH belongs ≤ 0.25; to YGHV, 4.1; to IWTF, ≤ 0.25. In the case of DPFD, the enrichment ratio was ≤ 0.25. With QCSE, the enrichment ratio is ≤ 0.25. To RMAM belongs ≤ 0.25; to RIYA, ≤ 0.25. For SLGL the value was 7.57. To SLIW belongs ≤ 0.25; to MHMR, ≤ 0.25. As for THWM, the enrichment ratio is ≤ 0.25. Take MCSK: the enrichment ratio is ≤ 0.25.

As for YQGE, the enrichment ratio is ≤ 0.25. Turning to KDYS, the enrichment ratio was ≤ 0.25. In the case of IYCD, the enrichment ratio is ≤ 0.25.

Consider EYDG, for which the enrichment ratio was ≤ 0.25. For PGIV the value was ≤ 0.25.

Take AWMQ: the enrichment ratio is ≤ 0.25. For the variant YIFL, the enrichment ratio was ≤ 0.25. To TWMR belongs ≤ 0.25; to ICSV, 0.898.

In the case of ATCD, the enrichment ratio is ≤ 0.25. In the case of GEKN, the enrichment ratio is ≤ 0.25. Regarding QAFS, the enrichment ratio turned out to be 2.95.

Regarding LSDS, the enrichment ratio was ≤ 0.25. To VKPE belongs ≤ 0.25; to FNRT, ≤ 0.25. To SKNY belongs ≤ 0.25; to TEGC, ≤ 0.25. For WLRH the value was ≤ 0.25.

For the variant ELLS, the enrichment ratio was ≤ 0.25. To FGKN belongs ≤ 0.25. For IKQM the value was ≤ 0.25; for MPDM, ≤ 0.25; for YVFI, ≤ 0.25.

Regarding DDPC, the enrichment ratio is ≤ 0.25.

Take TPLW: the enrichment ratio is ≤ 0.25. In the case of DMGY, the enrichment ratio is ≤ 0.25. To WSPL belongs ≤ 0.25; to SFLR, ≤ 0.25; to WKVE, ≤ 0.25.

With YNMA, the enrichment ratio was ≤ 0.25. To RPLE belongs ≤ 0.25; to NHKI, ≤ 0.25; to YHNN, ≤ 0.25. For YGRP the value was ≤ 0.25; for MTLC, 5.48. Turning to QYSY, the enrichment ratio is ≤ 0.25.

With LHKT, the enrichment ratio was ≤ 0.25. For IDMG the value was ≤ 0.25; for DDKS, ≤ 0.25; for INCE, ≤ 0.25. VTFI: the enrichment ratio is ≤ 0.25. PALN: the enrichment ratio is ≤ 0.25. For SQIW the value was ≤ 0.25; for IDHS, ≤ 0.25; for NNWY, ≤ 0.25. To PMVY belongs ≤ 0.25; to HLYK, ≤ 0.25; to EHII, ≤ 0.25. For SWWW the value was ≤ 0.25; for WYAN, ≤ 0.25. Consider YLRM, for which the enrichment ratio is ≤ 0.25.

Turning to GLDF, the enrichment ratio is ≤ 0.25. On to LISN, for which the enrichment ratio is ≤ 0.25. To MVRK belongs ≤ 0.25; to LEDD, ≤ 0.25; to QDGP, ≤ 0.25. For QQVC the value was ≤ 0.25; for WFSC, ≤ 0.25; for MVRV, ≤ 0.25.

As to AHSV, the enrichment ratio was ≤ 0.25.

As to HRPN, the enrichment ratio is ≤ 0.25. To HPKC belongs ≤ 0.25; to LNQG, ≤ 0.25; to MFDM, ≤ 0.25.

On to TIYC, for which the enrichment ratio is ≤ 0.25. For HKIK the value was ≤ 0.25; for RCTK, ≤ 0.25; for IDHH, ≤ 0.25.

As to GSSE, the enrichment ratio was ≤ 0.25. For HGDM the value was ≤ 0.25. To RRET belongs ≤ 0.25. For DRQH the value was ≤ 0.25; for VPMF, ≤ 0.25. Consider VTLK, for which the enrichment ratio is ≤ 0.25.

Consider LWKL, for which the enrichment ratio was ≤ 0.25.

On to TMLA, for which the enrichment ratio came to 2.72. For CMIY the value was ≤ 0.25; for AEEL, ≤ 0.25; for KTTK, ≤ 0.25. For NNDW the value was ≤ 0.25; for VKFY, ≤ 0.25; for VCRF, ≤ 0.25. Take FNMM: the enrichment ratio was 4.61. As to MSYC, the enrichment ratio came out at 6.9. To TMKK belongs ≤ 0.25; to MTHP, ≤ 0.25. HRCH: the enrichment ratio is ≤ 0.25. Turning to PKYH, the enrichment ratio is ≤ 0.25. To VSFT belongs ≤ 0.25; to RYEE, ≤ 0.25; to ATDP, ≤ 0.25. To DGLM belongs ≤ 0.25. For DHVR the value was ≤ 0.25; for SLHP, ≤ 0.25.

For the variant SVQC, the enrichment ratio came out at 4.27. To KYQF belongs ≤ 0.25; to LFTA, ≤ 0.25.

For PFHW, the enrichment ratio is ≤ 0.25. For the variant NWNP, the enrichment ratio was ≤ 0.25.

Turning to EPPR, the enrichment ratio was ≤ 0.25. To QHNV belongs ≤ 0.25; to TEHL, 12.5. For EHKH the value was ≤ 0.25; for VIDC, ≤ 0.25; for GTHD, ≤ 0.25. To TMTR belongs ≤ 0.25. For TKYN, the enrichment ratio was ≤ 0.25. For HHDD the value was ≤ 0.25. For AKIY the value was 6.04; for KVFP, ≤ 0.25. For EYFC the value was ≤ 0.25; for AGII, 33.2. Take IVNM: the enrichment ratio was ≤ 0.25. For KIYD the value was ≤ 0.25; for ERTI, ≤ 0.25. For WCRA the value was ≤ 0.25. To DGNF belongs ≤ 0.25. Turning to AEDC, the enrichment ratio is ≤ 0.25.

Turning to PGHR, the enrichment ratio was ≤ 0.25.

For WNLH, the enrichment ratio was determined as 0.602. For LMIG the value was ≤ 0.25; for SLCR, 8.12.

Regarding PLDV, the enrichment ratio was ≤ 0.25. To SWIV belongs ≤ 0.25. On to NCLG, for which the enrichment ratio was found to be 0.394. To ITML belongs 8.63; to NDEG, ≤ 0.25; to PSEV, ≤ 0.25. For YNMH the value was 0.275; for NCAM, ≤ 0.25; for IGFT, ≤ 0.25. On to QPWH, for which the enrichment ratio is ≤ 0.25. To HHCP belongs ≤ 0.25; to FSPR, ≤ 0.25; to NHYQ, ≤ 0.25.

As for WYSL, the enrichment ratio is ≤ 0.25. For VCWL the value was ≤ 0.25. On to NNGA, for which the enrichment ratio is ≤ 0.25. To PLQD belongs ≤ 0.25. On to YVMR, for which the enrichment ratio was ≤ 0.25. For DTSS the value was ≤ 0.25; for SQSP, ≤ 0.25; for EFAM, ≤ 0.25.

Take FLYE: the enrichment ratio was ≤ 0.25.

As for HQLI, the enrichment ratio was ≤ 0.25. For MRHI the value was ≤ 0.25; for PTVE, ≤ 0.25; for FQFH, ≤ 0.25.

Consider FPFD, for which the enrichment ratio is ≤ 0.25. To YMSK belongs ≤ 0.25; to PGHG, ≤ 0.25; to DSQQ, ≤ 0.25. For SEEQ the value was ≤ 0.25. To SVTN belongs 16.4; to KMDW, ≤ 0.25.

As for KKHM, the enrichment ratio is ≤ 0.25. With HMRW, the enrichment ratio is ≤ 0.25.

KSQP: the enrichment ratio is ≤ 0.25.

Consider KSWM, for which the enrichment ratio was ≤ 0.25. To PSMA belongs ≤ 0.25. For WVIP the value was ≤ 0.25; for SHGP, ≤ 0.25. For DPSC the value was ≤ 0.25; for FDCL, ≤ 0.25. On to SWPM, for which the enrichment ratio was ≤ 0.25. As for KYNS, the enrichment ratio was ≤ 0.25. On to DTFW, for which the enrichment ratio is ≤ 0.25. For NTSE the value was ≤ 0.25. For PIAC the value was ≤ 0.25.

On to VENR, for which the enrichment ratio is ≤ 0.25. To LGFE belongs ≤ 0.25. To GFVV belongs ≤ 0.25; to TTRS, ≤ 0.25; to IQPS, ≤ 0.25. For HGHC the value was ≤ 0.25; for TEMG, 19.1; for HEWM, ≤ 0.25. Consider SATL, for which the enrichment ratio came to 6.87. For TIEI, the enrichment ratio was 2.86. For KSGP the value was ≤ 0.25. As to DADH, the enrichment ratio is ≤ 0.25. For YKSD the value was ≤ 0.25; for ELMM, ≤ 0.25; for YAIN, ≤ 0.25. For SYTI the value was 0.274; for MFMY, ≤ 0.25. To GQTL belongs ≤ 0.25.
